Here are results for 34 variants from the RNAGym collection of RNA variant scans (doi:10.1093/nar/gkz1192).

Sequences and labels used below:
B1: CPEB3 Ribozyme (parent)
chain: UAACAGGGGGCCACAGCAGAAGCGUUCACGUCGCAGCCCCUGUCAGAUUCUGGUGAAUCUGCGAAUUCUGCUGUAUAUCUC

The source gives no read counts; variants with many changes may rest on few reads.

This series covers variants of B1. Nature of the series: self-cleavage, relative activity (ratio to wild type); higher = more cleavage; in vitro, sequencing. The procedure, abridged: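 After error-prone PCR and barcoding, CPEB3 ribozyme mutant libraries were transcribed with T7 RNA polymerase at 37°C for 5 hours, then given 15 min with DNase I before an EDTA stop, and they cleaved during both steps. Reverse transcription with template switching preceded Illumina sequencing. Relative activity divides a variant's cleaved/total read fraction by the unmutated ribozyme's. At least 5 reads were required per variant, and three batches were averaged.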
With UAUCAGGGGGCCACAGCAGAAGCGUUCACGUCGCAGCCCCCGUCAGAUUCUGGUGAACCUGCGAACUCUGCUGUAUUUCUC [A3U U41C U58C U66C A77U], the self-cleavage was 0.32. Next, UAUCAGGGGGCCACAGCAGAAGCGUUCACGUCGCAGCCCCUGUCAGAUUCUGGUGAAUCUGCGAAUUCUGCCGUAUGUCUC [A3U U72C A77G]: 1.07; UAAAAGGGGGCCACAGCAGUAGCGUUCACGUCGCAGCCCCUGUCAGAUUCUGGUGAAUCUGCGAAUUCUGGUGUAUACCUC [C4A A20U C71G U78C]: 0.1; UAUCAGGGGGCCACAGCAGAAGCGUUCACGUCGCAGCCCCUGUCAGAUUCUGGAGAAUCUGCGAGUUCUGCUGUAUAUCUC [A3U U54A A65G]: 0.68.

Consider UAUCAGGGGGCCACAGCAGAAGCGUUCACGUCGCAGCCCCUGUCAGAUACAGGUGAACCUGCGAAUUCUGCUGUGUAUCUC [A3U U49A U51A U58C A75G], for which the self-cleavage amounted to 0.12. UAAAAGGAGGCCACAGCGGAAGCGUUCACGACGCAGCCCCUGUCAGAUUCUGGUGAAGCUGCGAAUUCUGUUGUAUAUCUC [C4A G8A A18G U31A U58G C71U]: the self-cleavage amounted to 0.06. UAUCAGGGGGCCACAGCAGAAGCGUUCACGUCGCAGCCCCUGUCAGAUUCUGGAGUAUCUGCGAAUUCUGCUGUAUAUCUC [A3U U54A A56U]: the self-cleavage was 0.59. In the case of UAUCAGGGGGCCACAGCAGAAGCGUUCACGUCGCAGCCCCUGCCAGAUUCAGGUGAAUCUGCGAACUCUGCUGUAUAUCUC [A3U U43C U51A U66C], the self-cleavage was 0.4.

Take UAAAAGGGGGCCACAGCAGAAGCGUUCACGUCGCGGCCCCUGUCAGAUUCUGGCGCAUCUGCGAAAUCUGCUGUAUAUCUC [C4A A35G U54C A56C U66A]: the self-cleavage was 1.04.

Regarding UAAAAGGGGGCCACAGCAGAAGCGUUCACGUCGCGGCCCCCGUCAGAUUCUGGUGAAUCUGCGAAUUCUGCUGUAUACCUC [C4A A35G U41C U78C], the self-cleavage was determined as 1.26. Regarding UAAAAGGGGGCCACUGCAGAAGCGUUCGCGUCGCAGCCCCUGUCAGAUUCUGGUGAAUCUGCGAAUUCUGCUGAAUAUCCC [C4A A15U A28G U74A U80C], the self-cleavage is 0.96. As to UAAAAGGGGGCCACAGCAGAAGCGUUCACGUCGCGGCCCCUGUCGGAUUCUGGUGAAUCUGCGAACUCUGCUGUUUAUCCC [C4A A35G A45G U66C A75U U80C], the self-cleavage was found to be 1.01. Regarding UAAAAGGGGGCCACAGCAGAAGCGUUCACGUCGCGGCCCCUGUCAGAUUCUGGUGAAUCUGCGAAUUCUGCUGAAUAUCUC [C4A A35G U74A], the self-cleavage was 1.2. UAUCAGGGGGCCACAGCAGAAGCGUUCACGUCGCAGCCCCUGCCAGAUUCUGGUGAAUCUGCAAAUUCUGCUGUACAUCUC [A3U U43C G63A U76C]: the self-cleavage was 0.6. In the case of UAUCAGGGGGCCACAGCAGAAGCGUUCACGUCGCAGCCCCCGUCAGAUUCUGGUGAAUCCGCGGAUUCUGCUGUAUAUCUC [A3U U41C U60C A64G], the self-cleavage stood at 0.2. In the case of UAAAAGGGGGCCACAGCAGUAGCGUUCACGUCGCAGCCCCUGUCAGAUUCUGGUGAAUCUGCGACUUCUGCUGUAUAUCUC [C4A A20U A65C], the self-cleavage worked out at 0.12. With UAUCAGGGGGCCACAGCAGAAGCGUUCACGCCGCAGCCCCUGCCAGAUUCUGGUGAAUCAGCGAAUUCUGCCGUACAUCUC [A3U U31C U43C U60A U72C U76C], the self-cleavage amounted to 0.34.

With UAUCAGGGGGCCACAGCAGAAGCGUUCACGGCGCAGCCCCUGCCAGAUUCUGGUGAAUCUGCGAAUUCUGCUGUAUAUCUC [A3U U31G U43C], the self-cleavage worked out at 0.52. Take UAUCAGGGGGCCACAGCAGAAGCGUUCACGUCGCAGCCCCUGUCAGAUUCUGGCGAAUCUGCGAAUUCUGCUGUAUUUCUC [A3U U54C A77U]: the self-cleavage turned out to be 1.07.

With UAAAAGGGGGCCACAGCAGAGGCGUCCACGUCGCAGCCCCUGUCAGAUUCCGGCGAAUCUGCGAAUUCUGCUGUAUAUCUC [C4A A21G U26C U51C U54C], the self-cleavage was 0.35. With UAUCAGGGGGCCACAGCAGAAGCGUUCACGUCGCAGCCCCAGUCAGAUCCUGGUGAAUCUGCGAAUUCCGCUGUAUAUCUC [A3U U41A U49C U69C] the figure was 0.22; with UAUCAGGGGGCCACAGCAGAAGCGUUCACGCCGCAGCCCCUGUCAGAUUCUGGUGAAUCUGCGAAUUCUGCUGUACAUCUC [A3U U31C U76C], 1.09.

Turning to UAAAAGGGGGCCUCAGCAGAAGCGUUCACCACGCAGCCCCUGUCAGAUUCUGGUGAAUCUGCGUAUUCUGCUGUAUAUCUC [C4A A13U G30C U31A A64U], the self-cleavage turned out to be 0.12.

Consider UAAAAGGGGGCCACAGCAGAAGCGUGCACGUCGCAGCCCCUGUCAGAUUCUGGUGAAUCUGCGAAUUCUGCUGUAUACCUC [C4A U26G U78C], for which the self-cleavage was 0.46.

Turning to UAUCAGGGGGCCACAGCAGAAGCGUUCACGUCGCAGCCCCCGUCCGAUUCUGGUGAUUCUGCGAAUUCUGCUGUUUAUCUC [A3U U41C A45C A57U A75U], the self-cleavage is 0.17.

On to UAUCAGGGGGCCACAGCAGAAGCGUUCACGUCGCAGCCCCUGUCAGAUCCUGGUGAAUCUGCGAACUCUGCGGUAUACCUC [A3U U49C U66C U72G U78C], for which the self-cleavage turned out to be 0.15.

For the variant UAUCAGGGGGCCACAGCAGAAGCGUUCACGUCGCAGCCCCUGCCAGAUUCCGGUGAAUCUGCGAAUUCUGCUGUAUAUCUC [A3U U43C U51C], the self-cleavage amounted to 0.88. With UAUCAGGGGGCCACAGCAGAAGCGUUCACGCCGCAGCUCCUGUCAGAUUCUGGUGAAUCUGCGAAUUCUGCUGUAUAUCUC [A3U U31C C38U], the self-cleavage is 0.9. For the variant UAAAAGGGGGCCACAGCAGAAGCGUUCACGUCGCGGCCCAUGUCAGAUUCUGGCGAAUCUGCGAUUUCUGCUGUAUAUCUC [C4A A35G C40A U54C A65U], the self-cleavage was found to be 0.22. As for UAAAAGGGGGCCACAGCAGUAGCGUUCACGACGCGGCCCCUGUCAGAUUCUGGUGAAUCUGCGAAUUCUGCUGUAUAUCUC [C4A A20U U31A A35G], the self-cleavage is 0.27.

Take UAUCAGGGGGCCACAGCAGAAGCGUUCACGUCGCAGCCCCAGUCAGAUUCUGGUGAAUCUCCGAAUUCUGCUGUAUAUCUC [A3U U41A G61C]: the self-cleavage was 0.35. Regarding UAAAAGGGGGCCACAGCAGAGACGUUCACGUCGCAGCCCCUGUCAGAUUCUGGUGAAUCUGCAAAUCCUGCUGUAUAUCUC [C4A A21G G22A G63A U67C], the self-cleavage is 0.07.

With UAUCAGGGGGCCACAGCAGAAGCGUUCACGUCGCAGCCCCUGCCAGAUUCUGGUGAAUCUGCGAAUUCUGCUGCAUGUCAC [A3U U43C U74C A77G U80A], the self-cleavage came to 0.92.

For the variant UAUCAGGGGGCCACAGCAGAAGCGUUCACGUCGCAGCCCCGGUCAGAUUCUGGUGAAUCUGCGGACUCUGCUGUAUGUCUC [A3U U41G A64G U66C A77G], the self-cleavage stood at 0.13.
